Measured values reported in the supplement of paper PMC4967469.

What was measured:
Test in all cases: Viability of human cancer cell lines after 72 h of drug (GDSC screen)
[1] = compound: CC1(C)CCC(c2ccc(Cl)cc2)=C(CN2CCN(c3ccc(C(=O)NS(=O)(=O)c4ccc(N[C@H](CCN5CCOCC5)CSc5ccccc5)c(S(=O)(=O)C(F)(F)F)c4)cc3)CC2)C1 [ABT-263]; conditions: top dose 2 µM; top dose inferred
Protocol: (§1)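 Human cancer cell lines in 384-well plates, medium with 10% serum, drug for 72 h over a 256-fold dose range (nine 2-fold or five 4-fold steps up to the top dose). Adherent lines were fixed and stained with the nucleic acid dye Syto60, suspension lines read with resazurin; signal relative to control wells, capped at 0 and 100%. One two-parameter sigmoid per drug and line, fitted in a mixed model over all curves with the slope shared within a line.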

[2] = compound: COc1cc(/C=C/C(=O)N2CCC=CC2=O)cc(OC)c1OC [piperlongumine]; conditions: top dose 10 µM
Protocol: as §1

[3] = compound: CC(=O)Nc1nc(C)c(-c2ccc(Cl)c(S(=O)(=O)NCCO)c2)s1 [PIK-93]; conditions: top dose 20 µM
Protocol: as §1

[4] = compound: Cn1cc(/C=C2\C(=O)Nc3cccnc32)c2ccccc21 [GW 441756]; conditions: top dose 2 µM; top dose inferred
Protocol: as §1

| Cell Line | AUC [1] | IC50 [1] [µM] | AUC [2] | IC50 [2] [µM] | AUC [3] | IC50 [3] [µM] | AUC [4] | IC50 [4] [µM] |
| --- | --- | --- | --- | --- | --- | --- | --- | --- |
| HT-29 (large intestine, adherent) | 0.987 | > 2 | 0.861 | 8.44 | 0.792 | 9.04 | 0.982 | > 2 |
| HT-115 (large intestine, adherent) | 0.991 | > 2 | 0.838 | 5.92 | 0.979 | > 20 | 0.981 | > 2 |
| HT-1080 (fibrosarcoma, adherent) | 0.949 | > 2 | 0.623 | 1.31 | 0.962 | > 20 | 0.989 | > 2 |
| HT-1197 (bladder, adherent) | 0.964 | > 2 | 0.804 | 6.14 | 0.956 | > 20 | 0.985 | > 2 |
| HT-1376 (bladder, adherent) | 0.979 | > 2 | 0.746 | 3.67 | 0.985 | > 20 | 0.969 | > 2 |
| HeLa (cervix, adherent) | 0.986 | > 2 | 0.635 | 1.44 | 0.945 | > 20 | 0.943 | > 2 |
| Hey (ovary, adherent) | 0.925 | > 2 | 0.755 | 3.22 | 0.791 | 8.39 | 0.882 | 1.9 |
| Hs633T (fibrosarcoma, adherent) | 0.985 | > 2 | 0.713 | 2.18 | 0.76 | 5.9 | 0.983 | > 2 |
| Hs683 (glioma, adherent) | 0.76 | 0.713 | 0.904 | > 10 | 0.896 | > 20 | 0.983 | > 2 |
| Hs746T (stomach, adherent) | 0.932 | > 2 | 0.651 | 1.9 | 0.919 | > 20 | 0.945 | > 2 |
| Hs766T (pancreas, adherent) | 0.907 | > 2 | 0.923 | > 10 | 0.981 | > 20 | 0.967 | > 2 |
| Hs939-T (melanoma, adherent) | 0.963 | > 2 | 0.751 | 3.56 | 0.961 | > 20 | 0.909 | > 2 |
| Hs-578-T (breast, adherent) | 0.982 | > 2 | 0.815 | 5.91 | 0.978 | > 20 | 0.953 | > 2 |
| HuCCT1 (biliary tract, adherent) | 0.983 | > 2 | 0.66 | 1.84 | 0.752 | 7.33 | 0.982 | > 2 |
| HuO9 (osteosarcoma, adherent) | 0.6 | 0.242 | 0.779 | 4.54 | 0.842 | 16.4 | 0.976 | > 2 |
| HuO-3N1 (osteosarcoma, adherent) | 0.978 | > 2 | 0.848 | > 10 | 0.844 | > 20 | 0.978 | > 2 |

| Cell Line | AUC [1] | IC50 [1] [µM] | AUC [2] | IC50 [2] [µM] | AUC [3] | IC50 [3] [µM] | AUC [4] | IC50 [4] [µM] |
| --- | --- | --- | --- | --- | --- | --- | --- | --- |
| HuP-T3 (pancreas, adherent) | 0.965 | > 2 | 0.755 | 4.1 | 0.826 | 15.9 | 0.919 | > 2 |
| HuP-T4 (pancreas, adherent) | 0.963 | > 2 | 0.724 | 2.84 | 0.541 | 1.63 | 0.976 | > 2 |
| IGR-1 (melanoma, adherent) | 0.88 | 1.63 | 0.777 | 3.52 | 0.759 | 6.19 | 0.987 | > 2 |
| IHH-4 (thyroid, semi-adherent) | 0.993 | > 2 | 0.73 | 2.39 | 0.896 | 15.9 | 0.945 | > 2 |
| IPC-298 (melanoma, adherent) | 0.981 | > 2 | 0.696 | 2.2 | 0.824 | 11.7 | 0.987 | > 2 |
| JEG-3 (urogenital system, adherent) | 0.981 | > 2 | 0.749 | 2.98 | 0.991 | > 20 | 0.99 | > 2 |
| JHH-1 (liver, adherent) | 0.965 | > 2 | 0.839 | 7.68 | 0.815 | 12.2 | 0.961 | > 2 |
| JHH-2 (liver, adherent) | 0.95 | > 2 | 0.723 | 2.84 | 0.857 | 18.2 | 0.986 | > 2 |
| JHH-4 (liver, adherent) | 0.86 | 1.67 | 0.792 | 4.51 | 0.726 | 5.48 | 0.977 | > 2 |
| JHH-7 (liver, adherent) | 0.953 | > 2 | 0.676 | 1.87 | 0.955 | > 20 | 0.939 | > 2 |
| JHOS-2 (ovary, adherent) | 0.912 | > 2 | 0.792 | 5.37 | 0.784 | 10 | 0.97 | > 2 |
| JHOS-3 (ovary, adherent) | 0.908 | > 2 | 0.833 | 9.17 | 0.784 | 11.1 | 0.949 | > 2 |
| JHU-011 (head and neck, adherent) | 0.931 | > 2 | 0.813 | 5.27 | 0.821 | 11.4 | 0.941 | > 2 |
| JHU-022 (head and neck, adherent) | 0.946 | > 2 | 0.692 | 2.52 | 0.97 | > 20 | 0.876 | > 2 |
| JIMT-1 (breast, adherent) | 0.901 | > 2 | 0.693 | 2.29 | 0.886 | > 20 | 0.979 | > 2 |
| K2 (melanoma, adherent) | 0.943 | > 2 | 0.785 | 5.67 | 0.884 | > 20 | 0.823 | 1.66 |

IC50 is the fitted dose that halves viability relative to control wells, and lower means more sensitive; a fit beyond the top or the lowest dose is shown as a bound at that dose. AUC, from the same fit, is the share of area under the viability curve across the 256-fold dose range: 1 means no effect, lower means more sensitive. For some of these results: The top dose, if marked as inferred, is not printed in the source and was worked back from the curve model.
